Test results: ChEMBL document CHEMBL4513135, “CO-ADD screening of IQOG CSIS (Spain) compounds”
This is one part of the list. Measured potencies and affinities stand elsewhere.

System: Acinetobacter baumannii
Details: Concentration 32 ug.mL-1; ASSAY_TEST Inhibition of Bacterial Growth; detection method Absorption (OD600); MEDIA CAMHB; plate type 384well; NBS; CORNING #3640; time 18 hr

Compound | Inhibition
Cc1nc2c3cnn(-c4ccccc4)c3nc(C)n2n1 | -1.29%
COc1nc(N)c(C#N)c(-c2ccccc2)c1C#N | 5.97%
COc1ccc(C2c3c(ccc4ccccc34)OC(=N)C2(Br)C#N)cc1OC (stereo unspecified) | 0.78%
Cc1[nH]nc2c1C(c1cccc([N+](=O)[O-])c1)C(C#N)=C(N)O2 (stereo unspecified) | -2.47%
N#Cc1c(N)nc(N2CCC(Cc3ccccc3)CC2)c(C#N)c1-c1ccccc1 | -0.69%
N#CC1=C(N)Oc2ccc3ccccc3c2C1c1ccccc1 (stereo unspecified) | 9.35%
CC(=O)Oc1ccc(C=C2N=C(c3ccccc3)OC2=O)cc1 | 10.76%
N#Cc1cc2c(N)n[nH]c2nc1N | -2.2%
OCc1c(-c2ccc(Br)cc2)nc2ccccn12 | -3.49%
O=C(N[C@H]1CC[C@H](O)CC1)c1ccccc1 | 13.58%
O=C1NC(=S)N/C1=C\c1c[nH]c2ccccc12 | -0.48%
COc1cc(CCC(N)=O)ccc1O | -1.72%
Cl.ClCCCN1CCCC1 | -12.22%
C#CCN(C)c1nc(Cl)c(C#N)c(-c2ccccc2)c1C#N | 16.3%
C#CCN(C)c1cc(C)nc(C)n1 | -1.71%
Cc1[nH]nc2c1C(c1ccc(O)c(O)c1)C(C#N)=C(N)O2 (stereo unspecified) | -14.7%

Compound | Inhibition
Cc1ccccc1-c1c(C=N)c(N)nc2c1S(=O)(=O)OC2(C)C | -8.26%
C#CC[n+]1ccccc1N.[Br-] | 10%
CCOc1nc(N)c(C#N)cc1C#N | 8.13%
COc1ccc2cc(C3C(C(C)=O)=C(C)Oc4nc5c(c(N)c43)CCCCC5)c(Cl)nc2c1 (stereo unspecified) | 0.08%
COC(=O)C(=Cc1ccc(OC)cc1)NC(C)=O | -3.76%
N#Cc1cc(Br)cc(Br)c1N | 11.09%
C=C1CN(Cc2ccccc2)c2c(C#N)c(-c3ccccc3)c(C#N)c(=N)n21 | 11.5%
Cn1c(CNNC(=O)Cc2cccc3ccccc23)cc2ccccc21 | -12.86%
CSC1=NC(=Cc2ccccc2)C(=O)N1C | 3.72%
Cl.N#Cc1c(N)nc(NCCO)c(C#N)c1-c1ccccc1 | 10.99%
CC(=O)NC=C1C(=O)OC(C)(C)OC1=O | 0.37%
CC1=C(C(=O)O[C@@H]2C[C@@]3(C)CC[C@H]2C3(C)C)C(c2ccccc2)C(C#N)=C(N)O1 (stereo partly specified) | 5.05%
CC1=NC(=Cc2ccccc2)C(=O)S1 | 5.61%
N#Cc1c(Cl)nc(Cl)c(C#N)c1-c1ccccc1 | 6.21%
Cc1nn(-c2ccccc2)c2ncn3nc(-c4ccccc4)nc3c12 | -0.63%
